# The full ranking holds about 33,000 sequences; the median of “E-score (-0.5 to 0.5)” is about -0.016, and the highest 2% start at about 0.32. The list shows a part of the results.
# Target: T1, Stp1 (UniProt B3LFK1)
# T1 sequence: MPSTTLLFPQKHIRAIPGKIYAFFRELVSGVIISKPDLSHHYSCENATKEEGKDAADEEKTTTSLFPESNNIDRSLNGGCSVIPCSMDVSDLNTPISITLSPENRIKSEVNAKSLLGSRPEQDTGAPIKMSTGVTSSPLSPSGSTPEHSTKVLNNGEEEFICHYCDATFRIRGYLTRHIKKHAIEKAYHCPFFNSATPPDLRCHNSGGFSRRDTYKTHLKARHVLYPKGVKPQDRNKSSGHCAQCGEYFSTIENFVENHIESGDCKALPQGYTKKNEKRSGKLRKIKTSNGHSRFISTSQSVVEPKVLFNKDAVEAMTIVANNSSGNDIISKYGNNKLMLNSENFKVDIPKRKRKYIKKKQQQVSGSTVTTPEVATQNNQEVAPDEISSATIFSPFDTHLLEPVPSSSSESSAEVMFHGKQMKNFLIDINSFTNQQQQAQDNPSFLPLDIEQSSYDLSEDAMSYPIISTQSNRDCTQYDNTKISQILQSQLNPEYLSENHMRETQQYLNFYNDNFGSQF
# Experiment: PBM E-score (8-mer binding enrichment) (E-score (-0.5 to 0.5)); higher = stronger / more preferred TF binding; most listed sequences are background and not binding sites
# Details: protein concentration: 200 nM; construct: GST-full length
# Outline: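 GST-tagged yeast TFs (full-length or DNA-binding domain) were made by PURExpress in vitro transcription/translation and applied at about 100-200 nM to universal all-10-mer Agilent arrays. The arrays were made double-stranded by primer extension, on fresh or once-stripped slides. Bound protein was detected with fluorescent anti-GST, and scans were normalised with masliner. Each ungapped eight-base word, pooled with its reverse complement, received an E-score (modified Wilcoxon-Mann-Whitney statistic) from the Universal PBM Analysis Suite.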
row,Sequence,PBM E-score
1,ATACTGGG,-0.194
2,AACTAGTC,-0.146
3,AGGAGGAA,-0.189
4,CGCTGGTA,-0.154
5,AACCACCT,-0.0136
6,AAGCTTGG,-0.131
7,ACGCCATG,0.197
8,AATTGGTC,0.061
9,AGATCTAT,-0.14
10,ATATCCAT,0.0536
11,CACGTCAA,-0.121
12,CAGGAACC,-0.291
13,CTCTTCCC,-0.158
14,AGCGTGAC,-0.111
15,GCGTCTGA,0.0171
16,AAAATCGA,0.167
17,ATACTATA,0.00844
18,AAAATCCG,0.0996
19,CAACTCAA,0.125
20,CGATGCGC,-0.0803
21,CGTAAAAG,0.2
22,AACGATAT,0.234
23,CTGAGGCA,0.192
24,CTTAAGAC,0.0928
25,ATGCGCTA,-0.239

row,Sequence,PBM E-score
1,CCGCGTAA,0.244
2,TTACGGAA,0.00983
3,CGATCTTA,0.0388
4,CGAAGAGC,0.0374
5,ACGGTCCT,-0.219
6,CATTGAGC,0.0677
7,TAGTCAAA,0.012
8,CGGGGACA,-0.261
9,GTTAGTCA,-0.0176
10,ACTGCACC,-0.0705
11,CACGCAAG,0.095
12,ATAGCAAG,-0.0247
13,CACTAAGC,-0.0386
14,AGCTTGAT,-0.128
15,GCGTCAAC,0.0191
16,ATGATGGG,-0.161
17,ACGAGACG,-0.0335
18,GTTTGCCA,0.183
19,AAACCCAT,0.0093
20,AGTGCCGG,0.211
21,AACCGTGT,0.0639
22,CTGACTGA,-0.164
23,AATGGACT,-0.2
24,GCTCTATA,-0.0525
25,AGTCCTGA,-0.0264

row,Sequence,PBM E-score
1,CGATCTCC,-0.0732
2,TTTAGAAA,0.13
3,CGGTTTAC,0.0169
4,CAGCTAGC,-0.151
5,CGCGCGAG,0.239
6,AGAACAAA,0.246
7,AATTATAT,0.179
8,AAAGTGGG,-0.235
9,GATACATA,0.146
10,CGCATGTC,0.0172
11,GACCTGAA,-0.148
12,CTAATCTC,0.0259
13,TCAGCTAA,-0.144
14,AATGGGAT,-0.176
15,CACGAGAG,-0.227
16,AAACGTTA,-0.04
17,CCAAGGGC,-0.234
18,ACACCAGA,0.00655
19,CGTAACCA,-0.116
20,CCTTCCCC,-0.163
21,CGGAACCG,0.00073
22,GCACAGCC,0.0901
23,ACCCGATG,-0.0553
24,TAAAAACA,0.163
25,CTTCAGCA,-0.196

row,Sequence,PBM E-score
1,AAGACTAG,-0.227
2,GTCTTGAA,0.0442
3,AAGCCCGT,-0.208
4,GCCGACAA,0.0311
5,ATCTTTGA,-0.0322
6,ACGTCTCC,-0.193
7,GAGAAATC,0.119
8,GACTCCGA,-0.173
9,AATGGGAG,-0.204
10,ACGTTGTG,0.0908
11,CGGCGACA,0.369
12,TGGGTAAA,-0.17
13,CCAAACGC,0.0617
14,GGCATATA,0.305
15,ACCGCTGA,-0.0664
16,AATAAACA,0.162
17,AGGTGGGA,-0.234
18,GATCATGC,-0.223
19,ATTCTATC,0.102
20,AGGACACC,-0.0925
21,AATAGCAG,-0.235
22,AATCGGTG,-0.0715
23,ACCTCGAC,-0.0257
24,CTAGGGTA,-0.255
25,GTTCCAAA,0.108

row,Sequence,PBM E-score
1,AAGTCAGT,0.105
2,AGTAGATA,0.233
3,AGTAATGA,0.0354
4,CGCGCCTC,0.377
5,GCCCGACC,-0.312
6,AAGGCAAG,0.0628
7,AGGAAGTC,-0.19
8,ATCTGTGC,0.171
9,ACAGCGCG,0.181
10,CGAGGAGA,-0.162
11,ACATTGAT,0.17
12,AGCCCACC,-0.142
13,GGGAAAAA,0.0158
14,AGTTGCCC,-0.00682
15,GCATTTAC,0.0437
16,AATAGTTG,0.0784
17,CCCGATCC,-0.245
18,CGTCACGC,0.0582
19,AAAACAAA,0.128
20,AAGCACGA,0.0182
21,CACGCCAC,0.0872
22,CAGAGGTC,-0.0994
23,GAGGGCGA,-0.232
24,CTGATTCC,-0.0956
25,AGGTAACC,0.0194

row,Sequence,PBM E-score
1,CGGATTCC,-0.00648
2,GCACGTGC,0.352
3,GCTGGAAC,-0.269
4,ACACCAAA,0.267
5,AATCTCAT,0.0525
6,CTAGGGGA,-0.364
7,CAGTCACA,-0.175
8,TATTACAA,0.0376
9,ATGCGGTA,0.0546
10,ACAACGAG,0.058
11,CCGTCTGC,0.208
12,AGCCAAAT,0.0771
13,AAATGTCG,-0.0524
14,GACACTGC,0.0467
15,CCATAACC,-0.0998
16,TCGTCGCA,0.0795
17,AACGAACT,-0.0533
18,CGGAAAGA,-0.0459
19,GAGCTGCC,-0.156
20,CCAAACTA,-0.0843
21,ACTCACGA,-0.149
22,ATTTTTAG,-0.0417
23,CACAATCC,-0.0187
24,AAGGAGCA,-0.0841
25,CTCGACAG,-0.225

row,Sequence,PBM E-score
1,CTGGTGTC,-0.112
2,AGCAACGG,0.239
3,TGATCACA,-0.056
4,GGAGTTCA,-0.191
5,AGCAATGA,0.131
6,CTGGGGGC,-0.412
7,ACGATAGT,0.00769
8,ATGAGGCG,0.35
9,ATCGGTTG,0.0446
10,AGCCAGGC,-0.101
11,TAGAACTA,0.0567
12,CGGCAATA,0.352
13,CCTACGTA,-0.0626
14,AAATGGCG,0.235
15,CTGGATCA,-0.249
16,CGAATTCA,0.21
17,ATTGAAAC,0.174
18,TCCGCTCA,-0.102
19,CACTCGTA,-0.0702
20,GGGTTACA,0.188
21,ACGTATTA,0.227
22,GGAATTGA,0.0238

# From the supplement of paper PMC3334620
